{"source": "PubChem BioAssay AID1347073", "about": "(National Center for Advancing Translational Sciences (NCATS), 2019)", "note": "Screen size: about 45,000 compounds; about 200 (0.44%) were called active. About 7% were inconclusive and are not listed. Calls come from the whole dose curve; as a rule, active = well fitted activation curve with a large enough effect; inconclusive = small, poorly fitted or top-dose-only effect; inactive = no such curve, though single readings can be large or run the other way. The list shows a part of the results.", "data": [{"assay": "qHTS of TDP-43 Inhibitors: NCGC Sytravon Library Screen; note: 0% is about no effect; nearly all actives have a fitted effect of over 55% in size", "conditions": "yeast TDP-43 toxicity rescue, BacTiter-Glo growth, 24 h; series mostly up to 46.1 µM; growth rescue (activation): at the top concentration", "method_in_brief": "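TDP-43-expressing yeast, pregrown in raffinose, seeded at OD600 0.02 in galactose medium with compound for 24 hr at 30 deg C. Growth read by BacTiter-Glo luminescence, so rescue of toxicity appears as activation.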", "values": [{"compound": "CCCCC(C(=O)NC1CCCC1)N(C(=O)c1snc(C(N)=O)c1N)c1ccc(F)cc1", "note": "(stereo not drawn)", "growth rescue (activation)": "inactive: 8.09%"}, {"compound": "Nc1nc(NCCCN2CCOCC2)nc(Nc2cccc(F)c2)c1[N+](=O)[O-]", "growth rescue (activation)": "inactive: 4.59%"}, {"compound": "COC(=O)c1cc2c(ccn2-c2ccc(F)cc2)n1CC(=O)C(C)(C)C", "growth rescue (activation)": "inactive: 1.96%"}, {"compound": "C=CCNc1nc2cc(-c3cccc(Cl)c3)sc2c(=O)n1C", "growth rescue (activation)": "inactive: 24.1%"}, {"compound": "O=C(/C=C/c1ccc(Cl)cc1)Nc1cc(S(=O)(=O)N2CCOCC2)ccc1N1CCOCC1", "growth rescue (activation)": "inactive: 9.56%"}, {"compound": "CCc1nc2sccc2c(=O)[nH]1", "growth rescue (activation)": "inactive: -4.74%"}, {"compound": "CCN1CCN(CCCOc2ccc(Cl)cc2Br)CC1", "growth rescue (activation)": "inactive: -4.81%"}, {"compound": "O=S(=O)(Cc1cc(-c2ccccc2)no1)c1ccccc1", "growth rescue (activation)": "inactive: 11.3%"}, {"compound": "Cc1cc(C)n2c(SCC(O)=C(C#N)c3nc4ccccc4[nH]3)nnc2n1", "growth rescue (activation)": "inactive: 0.126%"}, {"compound": "CC(=O)Oc1ccc(-c2cccc(C(=O)N3CCCCC3)c2)cc1", "growth rescue (activation)": "inactive: -3.7%"}, {"compound": "CCc1cccc(NC(=S)N(CCOC)C2CCN(C(C)=O)CC2)c1", "growth rescue (activation)": "inactive: -5.43%"}, {"compound": "Cc1c(C)n(CCCN(C)C)c2ncnc(NCc3ccccc3)c12", "growth rescue (activation)": "inactive: 1.88%"}, {"compound": "CC(=O)Nc1ccc(Sc2ncnc3scc(-c4ccccc4)c23)cc1", "growth rescue (activation)": "inactive: 23.6%"}, {"compound": "CCCC(C)NC(=O)Cc1ccc(Br)cc1", "note": "(stereo not drawn)", "growth rescue (activation)": "inactive: 10.6%"}, {"compound": "Cc1ccc(C2(c3noc(CN4CCC(c5ccncc5)CC4)n3)CCCC2)cc1", "growth rescue (activation)": "inactive: 5.49%"}, {"compound": "O=C(CNc1n[nH]c(=O)[nH]c1=O)N/N=C/C1CC=CCC1", "note": "(stereo not drawn)", "growth rescue (activation)": "inactive: -6.87%"}, {"compound": "O=CNc1cc(-c2ccc(C(=O)NC3CC3)cc2)cn2c(-c3ccc(F)cc3)cnc12", "growth rescue (activation)": "inactive: 4.02%"}, {"compound": "COc1ccnc(Oc2ccc(Cl)cc2)c1C#N", "growth rescue (activation)": "inactive: 12.5%"}, {"compound": "O=C(CSc1nc2ccccc2c(=O)n1Cc1ccccc1)Nc1ccc(Br)cc1C(=O)O", "growth rescue (activation)": "inactive: 4.68%"}, {"compound": "COc1cc(C(=O)Nc2ccc3c(c2)OCO3)ccc1OCc1c(C)noc1C", "growth rescue (activation)": "inactive: 19.1%"}, {"compound": "CC(NC(=O)c1ccccc1NC(=O)c1ccncc1)c1ccccc1", "note": "(stereo not drawn)", "growth rescue (activation)": "inactive: 10.3%"}, {"compound": "CCc1cc(C(=O)N2CCCC(Nc3ccc(F)c(F)c3)C2)n(C)n1", "note": "(stereo not drawn)", "growth rescue (activation)": "inactive: 15%"}, {"compound": "COc1ccc(Cl)cc1NC(=O)C(C)NC(c1ccccc1)c1ccccc1", "note": "(stereo not drawn)", "growth rescue (activation)": "inactive: 14.1%"}, {"compound": "COc1ccc(N(C2=NCCCS2)S(=O)(=O)c2ccc(C(C)(C)C)cc2)cc1", "growth rescue (activation)": "inactive: -2.31%"}, {"compound": "COc1cc(/C=N/NC(=O)COc2cc(C)cc(C)c2)ccc1OS(=O)(=O)c1ccc(C)cc1", "growth rescue (activation)": "inactive: 15.6%"}, {"compound": "CCCNC(=O)c1c(Cl)cnn1-c1ccc(C)cc1", "growth rescue (activation)": "inactive: 6.17%"}, {"compound": "CC1(Cc2ccc(S(C)(=O)=O)cc2)C(=O)Nc2ccc(Cl)cc21", "note": "(stereo not drawn)", "growth rescue (activation)": "inactive: 11.1%"}, {"compound": "Cc1ccc(C(=O)NCc2cccnc2)cc1S(=O)(=O)Nc1ccccc1", "growth rescue (activation)": "inactive: 13.6%"}, {"compound": "Cc1cc(C(=O)Nn2c(-c3ccc(Br)cc3)nc3ccccc3c2=O)ccc1[N+](=O)[O-]", "growth rescue (activation)": "inactive: 2.3%"}, {"compound": "O=C(Nc1nnc(SCc2ccc(F)cc2)s1)c1ccc2c(c1)C(=O)N(c1ccccc1Cl)C2=O", "growth rescue (activation)": "inactive: 6.62%"}, {"compound": "CCOC(=O)c1c(NC(=O)c2c(C(=O)O)cccc2[N+](=O)[O-])sc(C)c1C", "growth rescue (activation)": "inactive: 3.72%"}, {"compound": "COCCNc1nc(NCCOc2ccccc2Cl)c2sccc2n1", "growth rescue (activation)": "inactive: 9.54%"}, {"compound": "Cc1cccc(C(=O)N[C@H](C(=O)OCC(=O)NC(=O)c2cccn2C)C(C)C)c1", "growth rescue (activation)": "inactive: -3.5%"}, {"compound": "CCOC(=O)c1c(CC(C)C)csc1/N=C/C1C(=O)CC(C)(C)CC1=O", "growth rescue (activation)": "inactive: 15.4%"}, {"compound": "O=C(O)c1ccc(S(=O)(=O)/N=C2\\C=C(Nc3ccccc3F)C(=O)c3ccccc32)cc1", "growth rescue (activation)": "inactive: -27.5%"}, {"compound": "COc1cc(C)c(NC(=S)Nc2cccc(Cl)c2)cc1OC", "growth rescue (activation)": "inactive: -18.8%"}, {"compound": "NC(=O)c1cc(S(=O)(=O)N2CCc3ccccc3C2)cs1", "growth rescue (activation)": "inactive: -1.51%"}, {"compound": "COC(=O)CC(c1ccc(C#N)cc1)n1c(C)ccc1C", "note": "(stereo not drawn)", "growth rescue (activation)": "inactive: 21.7%"}, {"compound": "COc1cccc(C(=O)NNC(=O)CCN2CCN(c3ccccc3)CC2)c1", "growth rescue (activation)": "inactive: 8.36%"}, {"compound": "CCNc1nc(NCC)n2c(SCC(=O)NC34CC5CC(CC(C5)C3)C4)nnc2n1", "growth rescue (activation)": "inactive: -25.3%"}, {"compound": "COc1ccc(-c2nc(-c3cccnc3)no2)cc1OC", "growth rescue (activation)": "inactive: 13.9%"}, {"compound": "CCCCNC(=O)C1(C)CCCCN1C(=O)c1cc(-c2ccccc2)cs1", "note": "(stereo not drawn)", "growth rescue (activation)": "inactive: 15.1%"}, {"compound": "S=C(NCc1ccc(Cl)cc1)Nc1ccc(Cl)cc1Cl", "growth rescue (activation)": "inactive: -25.7%"}, {"compound": "O=C(O)CSCC(=O)NCc1ccccc1Cl", "growth rescue (activation)": "inactive: 1.93%"}, {"compound": "C=CCN=C(C)C1=C(O)C(C)OC1=O", "note": "(stereo not drawn)", "growth rescue (activation)": "inactive: 15.4%"}, {"compound": "Cc1ccc(NC(=O)CNC(C)c2ccccc2)cc1", "note": "(stereo not drawn)", "growth rescue (activation)": "inactive: -9.51%"}, {"compound": "S=c1[nH]nc(-c2cc(-c3ccccc3)n[nH]2)n1/N=C/c1c2ccccc2cc2ccccc12", "growth rescue (activation)": "inactive: -0.184%"}, {"compound": "COc1ccc(NC(=O)C2CCCN(C(=O)Nc3ccc(OC)cc3)C2)cc1", "note": "(stereo not drawn)", "growth rescue (activation)": "inactive: -6.3%"}, {"compound": "Cc1[nH]c(=O)[nH]c(=O)c1S(=O)(=O)N1CCCCC1", "growth rescue (activation)": "inactive: 13.3%"}, {"compound": "O=C(CSC1=NCCS1)NC(c1ccccc1)c1ccccc1", "growth rescue (activation)": "inactive: -0.763%"}, {"compound": "COc1ccc(C2CC(c3cccs3)=NN2c2ccc(F)cc2)cc1OC", "note": "(stereo not drawn)", "growth rescue (activation)": "inactive: 3.24%"}, {"compound": "Cc1ccc2ccccc2c1C(O)c1ncc(-c2ccc(F)cc2)[nH]1", "note": "(stereo not drawn)", "growth rescue (activation)": "inactive: -5.81%"}, {"compound": "C/C(=N\\NC(=O)CCCCCNC(=O)c1ccccc1)c1ccccc1O", "growth rescue (activation)": "inactive: 11.5%"}]}]}
